# According to PubChem BioAssay (NCATS):
# The shares of active, inactive and inconclusive entries below differ from those in the screen. Potencies of inconclusive entries are doubtful fits and often do not repeat. Activity calls are given as the source filed them. Calls come from the whole dose curve; as a rule, active = well fitted inhibition curve with a large enough effect; inconclusive = small, poorly fitted or top-dose-only effect; inactive = no such curve, though single readings can be large or run the other way.
# Assay: Primary qHTS for inhibitors of nuclear receptor binding SET domain protein 2 (NSD2) in an RCH-ACV wild type WT cells (2C) (AID 1645877); note: nearly all actives have a fitted effect of over 70% in size
# Settings: RCH-ACV (leukaemia line) NSD2 WT (2C) viability, CellTiter-Glo, 72 h; series mostly up to 44.9 µM
# Potency is the fitted concentration of half-maximal effect; tags give direction and shape of the fitted curve.
row,Compound,Potency
1,CN1CCC(N(Cc2ccccc2)c2ccccc2)CC1,"inconclusive: 29.9 µM [inhibitor, single point]"
2,CC[C@H]1C[C@@H]2C[C@H]3c4[nH]c5ccc(OC)cc5c4CCN(C2)[C@@H]13,"inconclusive: 37.8 µM [inhibitor, single point]"
3,c1ccc(C2CC2)c(OCC2=NCCN2)c1,inactive
4,C[C@]12CC[C@H](O)CC1=CC[C@@H]1[C@@H]2CC[C@]2(C)C(=O)CC[C@@H]12,"inconclusive: 26.6 µM [inhibitor, single point] and inactive"
5,CC(Cc1ccccc1)NCc1ccccc1Cl (configuration not stated),"inconclusive: 29.9 µM [inhibitor, single point]"
6,CN(C)CCc1c[nH]c2cccc(O)c12,"inconclusive: 67.9 µM [inhibitor, partial curve, poor fit]"
7,COCC1(CO)C(=O)C2CCN1CC2 (configuration not stated),"inconclusive: 26.3 µM [inhibitor, single point]"
8,COP(=S)(OC)Oc1ccc(Sc2ccc(OP(=S)(OC)OC)cc2)cc1,"inconclusive: 29.9 µM [inhibitor, single point]"
9,C[C@]12CC[C@H](OC3OC(CO)C(O)C(O)C3OC3OC(CO)C(O)C(O)C3O)C[C@@H]1CC[C@@H]1C2CC[C@]2(C)[C@@H](C3=CC(=O)OC3)CC[C@]12O (some centres not stated),"inconclusive: 6.82 µM [inhibitor, single point]"
10,COP(=O)(OC)C(O)C(Cl)(Cl)Cl (configuration not stated),inactive
11,CC(C)[C@H]1C(=O)N[C@H](CO)Cc2c[nH]c3cccc(c23)N1C,"inconclusive: 1.15 µM [inhibitor, full curve]"
12,CC(=O)OC1CC(O)C(C)(C)C2CC(OC(C)=O)C3(C)C(CCC4(C)C(c5ccoc5)C(=O)C5OC543)C12C (configuration not stated),inactive
